From the antibiotic and cytotoxicity screens of Wong et al. (2023)
The list shows a part of the results.

What was measured:
HSkMC = human skeletal muscle cells; test: cytotoxicity call (relative viability < 0.9); details: 10 µM
HepG2 = test: cytotoxicity call (relative viability < 0.9); details: 10 µM
S. aureus RN4220 = test: growth inhibition call (relative growth <= 0.2); details: 50 µM

SMILES | cytotoxicity call (HSkMC) | cytotoxicity call (HepG2) | growth inhibition call (S. aureus RN4220)
COc1ccc(S(=O)(=O)N(C)C[C@H]2Oc3c(NS(=O)(=O)c4cn(C)cn4)cccc3C(=O)N([C@@H](C)CO)C[C@H]2C)cc1 | inactive | inactive | inactive
COc1ccccc1C#Cc1cnc2c(c1)C(=O)N([C@@H](C)CO)C[C@H](C)[C@@H](CN(C)C(=O)CN(C)C)O2 | inactive | inactive | inactive
CN1CCN(c2cc3c(cc2F)c(=O)c(C(=O)O)cn3-c2ccc(F)cc2)CC1.Cl | inactive | inactive | active
COc1ccc(CN(C)C[C@@H]2OCCCC[C@H](C)Oc3ccc(NC(=O)C4CCCCC4)cc3C(=O)N([C@@H](C)CO)C[C@H]2C)cc1 | inactive | active | inactive
Cc1ccc(S(=O)(=O)N(C)C[C@H]2Oc3ccc(NS(=O)(=O)c4cccs4)cc3C(=O)N([C@@H](C)CO)C[C@@H]2C)cc1 | inactive | inactive | inactive
C[C@@H]1CCCCO[C@@H](CN(C)C(=O)Cc2ccccc2)[C@@H](C)CN([C@H](C)CO)C(=O)c2cc(NS(=O)(=O)c3cccs3)ccc2O1 | inactive | inactive | inactive
C[C@@H]1CN([C@H](C)CO)S(=O)(=O)c2ccc(C#CC3CC3)cc2O[C@@H]1CN(C)Cc1cccc(F)c1 | inactive | inactive | inactive
CC(C)NC(=O)N(C)C[C@@H]1Oc2ccc(NC(=O)Nc3ccc4c(c3)OCO4)cc2CC(=O)N([C@H](C)CO)C[C@@H]1C | inactive | inactive | inactive
c1ccc(C2C3=C(CCCC3)SC3=C2CCCC3)cc1 | inactive | inactive | inactive
